# In all, about 33,000 sequences were measured (“E-score (dimensionless, -0.5 to 0.5)”: median about -0.058, highest 2% from about 0.35 on). Some of the results follow.
# Test system: MvaT
# Assay: PBM 8-mer E-score (mean of HK and ME arrays) (E-score (dimensionless, -0.5 to 0.5)); higher = stronger relative binding preference; most listed sequences are background and not binding sites
# How it was run: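 Reported values are rank-based E-scores, taken as the mean of two universal arrays and parsed with a custom script. Each 8-mer score falls between -0.5 and 0.5. The arrays, ME and HK, were double-stranded 60-mers with a constant 25-mer primer region and a variable 35-mer region covering all 8-mers. They were probed, by an earlier protocol, with full-length P. aeruginosa MvaT carrying an N-terminal glutathione S-transferase fusion.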
row,Sequence,PBM 8-mer E-score
1,CCCTCGCC,-0.307
2,ATCGATTG,0.0285
3,AACGCCAG,-0.15
4,GCAAGGGC,-0.247
5,CCGGCACC,-0.273
6,CTTATGCC,0.00469
7,CACGCGCG,-0.19
8,GTGGCAGA,-0.129
9,ATGTGCCG,0.0768
10,ACAAGAAG,0.0103
11,ATAAGAGG,0.0378
12,CATCCCGG,-0.136
13,ACCTGTAG,-0.13
14,GAACATGA,0.0574
15,CCGCTTAC,-0.0199
16,CGAAATTA,0.24
17,CGAATACC,-0.0335
18,AGATCCAA,0.00475
19,TCGCGCGA,0.0286
20,AGAACTAG,0.0971
21,ATTGATCC,0.0745
22,TAACGTTA,0.333
23,CGCAGAAG,-0.195
24,ATACCGGA,-0.141
25,AGGCCGGG,-0.346

row,Sequence,PBM 8-mer E-score
1,AGATCTCC,-0.204
2,GGGTCGAA,-0.0508
3,CAAGTGCG,-0.061
4,ATGTGACA,0.179
5,CGTAGGTA,-0.029
6,CCCAATCA,-0.106
7,GCCTTGTA,-0.0498
8,CTATCGCA,-0.108
9,CTGTGCTA,-0.0139
10,AAACTCAC,-0.00989
11,ACGACTGC,-0.218
12,GAGCCACA,-0.197
13,ATAGATTG,0.152
14,CGCCAAAG,-0.0963
15,AAAACTTT,0.354
16,AACGGCCA,-0.132
17,CACTGGTC,-0.315
18,AAATGACC,0.0232
19,GCAACGCC,-0.119
20,ATATTAAG,0.446
21,AGTTGCTC,-0.0921
22,CGGTTACC,-0.182
23,GCGTCAAA,0.1
24,ACACGCGT,-0.0867
25,AGTAGCGG,0.0183

row,Sequence,PBM 8-mer E-score
1,GAATGCCA,-0.0324
2,CGAAACGC,-0.141
3,GGCGGGGA,-0.214
4,CCGATCTA,-0.0527
5,ACAGTGGT,-0.197
6,GGCCTAAA,-0.0526
7,ACAGACAG,-0.0282
8,ACCAGTGG,-0.28
9,ACTGTCGA,-0.00521
10,GACGTCGA,-0.171
11,ATCCTTTC,-0.0118
12,ATCCGAGA,-0.129
13,CACGACCA,-0.0689
14,CTACCTGC,-0.133
15,AGGTATAG,-0.0523
16,GCGTAGGA,-0.114
17,CTGAACAC,-0.0824
18,AGCCATCC,-0.271
19,AGGCCGTC,-0.175
20,CGCCCAGC,-0.0815
21,GAGTACCC,-0.09
22,AGCTGGGA,-0.127
23,CACAGCCA,-0.0351
24,GTTGCGCA,0.0265
25,GTGTCCGA,-0.0935

row,Sequence,PBM 8-mer E-score
1,AAGACCTT,-0.0303
2,ATTCCGTC,0.0057
3,TGTCCAAA,0.146
4,AAGCCTAC,-0.0147
5,AGGAGGAT,-0.0948
6,CACCGGGC,-0.18
7,GGGGGTGA,-0.241
8,AACCCACT,0.0661
9,CTTGGAAA,0.0486
10,CCCGCTTC,-0.157
11,GTTAAAAA,0.239
12,ATCAATTC,0.118
13,ACCAGCCT,-0.109
14,GCTTGTCC,-0.263
15,CCAGCGAG,-0.0692
16,AGCCGGAG,-0.323
17,AGGATCGA,-0.146
18,ACAGGCAT,-0.0589
19,GTATACAC,0.209
20,CCTGAACC,-0.262
21,GAAGGCAC,-0.218
22,GGCAGCCC,-0.221
23,CCATGTCA,-0.0804
24,CCTTGGAC,-0.191
25,CTTAGTGC,0.0457

row,Sequence,PBM 8-mer E-score
1,GGGGACAC,-0.236
2,AGCAAGCG,-0.17
3,ACTGCGCA,-0.143
4,AATTACTG,0.21
5,ACCCCATC,-0.245
6,CATGGACC,-0.143
7,ACAGTTGA,0.12
8,AGGTAAAG,0.0227
9,ATCAGTAG,-0.0219
10,ATCCGACC,-0.349
11,AGTTTATA,0.424
12,CCCATAAC,0.15
13,AGCTTCCG,-0.0952
14,CCATGTCG,-0.0897
15,CGAATTAA,0.308
16,AAACGTGC,-0.00068
17,ATGGCGTC,-0.163
18,ACTTGCGA,0.0311
19,AAGTATAT,0.399
20,ACAAGCCC,-0.183
21,CCGGACCA,-0.184
22,AGCACTGA,0.0144
23,ACGTTATC,0.0431
24,GCCACCGA,-0.115
25,AGACCGAC,-0.00362

row,Sequence,PBM 8-mer E-score
1,AACAGCCT,-0.188
2,ATCCTGAC,-0.088
3,CGAAATCC,-0.146
4,TGGAGTAA,0.117
5,CCCAGGGA,-0.269
6,TCTTGCAA,0.186
7,ATATTTTA,0.43
8,CGAGTATA,0.195
9,ACATATGC,0.129
10,CGCTAACA,0.0344
11,GCAGACAA,0.114
12,AGCACGCC,-0.183
13,AGGAGGTA,-0.25
14,CAGACTTC,-0.134
15,AGACCCAC,-0.154
16,ATTTTAGA,0.222
17,GGTCCAAA,-0.0732
18,GGCCCGAA,-0.208
19,ATGGGTTA,0.183
20,CCGCTTCA,0.0258
21,AGAGAGAT,-0.0126
22,AAAGCCAA,-0.0485
23,CCTGTAAA,0.00252
24,CCCTGAAA,-0.167
25,AGATATGG,0.00259

row,Sequence,PBM 8-mer E-score
1,GATCGGGC,-0.199
2,ACTTTTAA,0.383
3,CCACGAGC,-0.173
4,AGTTTCCC,0.0554
5,CGCGAAGA,-0.176
6,ACTGCGGA,-0.185
7,ACCGCGCT,-0.128
8,ACTCTCGC,-0.13
9,AGGAACGA,-0.198
10,CCGACTGC,-0.238
11,ACTCAGCT,-0.00439
12,ATCTGCAA,0.0545
13,AATATAAA,0.451
14,AGTCTAGC,-0.158
15,GACATCCC,-0.116
16,ATATTACA,0.386
17,CTTGGTAA,-0.00388
18,CGGTTGGC,-0.185
19,GGCAGAAC,-0.0602
20,GAATCGTC,-0.0999
21,CTCAACAA,0.0252
22,ATTCGAGG,0.0115
